{"source": "ChEMBL document CHEMBL4888484", "about": "“Replenishing the malaria drug discovery pipeline: Screening and hit evaluation of the MMV Hit Generation Library 1 (HGL1) against asexual blood stage Plasmodium falciparum ,using a nano luciferase reporter read-out” (2022)", "note": "In all, about 150,000 compounds went through this assay and about 540 (0.36%) showed an effect of 50% or more. The list shows a part of the results.", "data": [{"tested_on": "Plasmodium falciparum", "test": "Primary screen in NF54 nanoGlo assay, in single point, at 2uM, 72h; a lower Z score goes with more inhibition", "format": "functional, Erythrocyte", "conditions": "timepoint 72 hour", "units": {"% Inhibition": "%"}, "values": [{"smiles": "Cc1cc(C(=O)NCC(C)(C)n2cccn2)ns1", "% Inhibition": -21, "Z score": 2.2}, {"smiles": "O=C(NC1CCCCC1)c1[nH]cnc1C(=O)N1CC[C@H](O)C1", "% Inhibition": 6, "Z score": -0.73}, {"smiles": "CCC(C)N1CC(=O)N2Cc3[nH]c4ccccc4c3CC2C1=O", "note": "(stereo not drawn)", "% Inhibition": -8, "Z score": 1.32}, {"smiles": "CC(=O)c1cn(Cc2nc3ccc(F)cc3o2)c(=O)n(C)c1=O", "% Inhibition": 3, "Z score": -0.26}, {"smiles": "CO[C@@H](CNC(=O)c1ccon1)C(C)(C)C", "% Inhibition": 2, "Z score": -0.28}, {"smiles": "O=C(NCCc1cc(N2CCCC2)ncn1)[C@H]1C[C@H]2C=C[C@@H]1C2", "% Inhibition": 0, "Z score": -0.04}, {"smiles": "Cc1ncsc1CN[C@@H](C)c1ncc(Cl)n1C", "% Inhibition": 12, "Z score": -1.46}, {"smiles": "CCCCC1CCC(c2nnc(-c3ccc(Cl)cc3)o2)CC1", "note": "(stereo not drawn)", "% Inhibition": 4, "Z score": -0.69}, {"smiles": "Cc1cccc(S(=O)(=O)N2CC[C@@H](C(F)(F)F)n3nccc32)c1", "% Inhibition": 5, "Z score": -0.81}, {"smiles": "O=C1N[C@H]2CCC[C@@H]1CN(C(=O)NCc1cc3ccc(F)cc3[nH]c1=O)C2", "% Inhibition": 2, "Z score": -0.29}, {"smiles": "CC[C@H]1C(=O)N(C)CCN1C(=O)c1coc(COc2cccc(F)c2)n1", "% Inhibition": -5, "Z score": 0.96}, {"smiles": "CC[C@H](NC(=O)[C@H]1C[C@@H]1c1ccccc1)C(F)(F)F", "% Inhibition": 0, "Z score": -0.03}, {"smiles": "O=C(c1cc2ccccc2[nH]1)N1CC[C@H](c2ncon2)C1", "% Inhibition": -4, "Z score": 0.74}, {"smiles": "O=C(NCC[C@H]1CCCN(Cc2ccco2)C1)c1cncnc1", "% Inhibition": -4, "Z score": 0.56}, {"smiles": "C[C@@H](CN)C(=O)N(CC1CC1)c1ccccc1", "% Inhibition": -9, "Z score": 1.53}, {"smiles": "COc1ccc(S(=O)(=O)N(CCN(C)C)Cc2ccccc2F)cn1", "% Inhibition": -11, "Z score": 1.71}, {"smiles": "CCOc1ncccc1CNC(=O)c1cnc(N2CCN(C)CC2)nc1C", "% Inhibition": -7, "Z score": 0.8}, {"smiles": "Cn1c(=O)n(C)c2cc(-c3nc4c([nH]3)C[C@H](c3ccccc3)CNC4=O)ccc21", "% Inhibition": 3, "Z score": -0.66}, {"smiles": "CC[C@@H](C(=O)NCCOC)N(c1ccc(OC)cc1)c1nc(-c2ccc(F)cc2)cs1", "% Inhibition": -13, "Z score": 2.05}, {"smiles": "CCN(C[C@H]1CCCCO1)C(=O)COc1ccc(Cl)cc1C", "% Inhibition": -13, "Z score": 2.38}, {"smiles": "COCCN(CCOc1ccccc1F)Cc1nccn1CCOC", "% Inhibition": 5, "Z score": -0.65}, {"smiles": "Fc1ccc(-c2cn(-c3ccc(S(F)(F)(F)(F)F)cc3)nn2)cc1", "% Inhibition": -17, "Z score": 1.95}, {"smiles": "Cc1nc(-c2c(C)noc2C)sc1C(=O)N(C)CCN(C)C1CC1", "% Inhibition": -4, "Z score": 0.45}, {"smiles": "COc1cccc(CNC(=O)COCc2nnc(C(=O)Nc3cccc(F)c3)s2)c1", "% Inhibition": -5, "Z score": 0.64}, {"smiles": "CCCNC(=O)COc1c(CC(=O)OC)cccc1OC", "% Inhibition": 1, "Z score": -0.14}, {"smiles": "CCC[C@@H](CNC(=O)c1c[nH]nc1-c1cnn(CC)c1)OC", "% Inhibition": -4, "Z score": 0.36}, {"smiles": "Cc1nc(-c2ccccc2)sc1[C@H](C)NC(=O)N1CCC(C)(O)CC1", "% Inhibition": -7, "Z score": 0.88}, {"smiles": "O=C([C@H](O)c1ccccc1)N1CCc2[nH]nc(-c3ccc(F)c(F)c3)c2C1", "% Inhibition": -15, "Z score": 1.87}, {"smiles": "COc1ncc(Br)cc1CNC(=O)Nc1nnn(C)c1C", "% Inhibition": -6, "Z score": 1.09}, {"smiles": "CCn1ncc(NC(=O)Cn2ccc(-c3cccn3C)n2)n1", "% Inhibition": 5, "Z score": -0.73}, {"smiles": "CCN1CCN(CCCN2CC3(CCN(c4cccc(C#N)n4)CC3)OC2=O)CC1", "% Inhibition": 1, "Z score": -0.13}, {"smiles": "COC(=O)c1cnc(NC[C@H]2Cc3ccccc3O2)c(S(=O)(=O)N2CCOCC2)c1", "% Inhibition": -2, "Z score": 0.41}, {"smiles": "CCc1nn(C)cc1CNC(=O)Nc1ccccc1N1CCOCC1", "% Inhibition": -8, "Z score": 0.94}, {"smiles": "O=c1c2cnc(N3CCc4ccccc4C3)nc2ccn1-c1ccc(Cl)c(Cl)c1", "% Inhibition": -8, "Z score": 1.01}, {"smiles": "NC(=O)CC[C@H]1CCCN(c2ncnc3c2ncn3C2CC(CO)(CO)C2)C1", "% Inhibition": 1, "Z score": -0.17}, {"smiles": "N#Cc1cc(F)cc(C(=O)Nc2ccc([C@@H](O)c3cccs3)cc2)c1", "% Inhibition": 2, "Z score": -0.39}, {"smiles": "CCOc1ccccc1CNC(=O)c1ccc2c(c1)NC(=O)[C@@H]1CCCCN21", "% Inhibition": -6, "Z score": 1.13}, {"smiles": "Cc1ncc(CN2CCc3c(cccc3NS(C)(=O)=O)C2)o1", "% Inhibition": 5, "Z score": -1.07}, {"smiles": "Cc1ccc(-n2nc(C(=O)N(C)C(C)C)nc2-c2ccco2)cc1", "% Inhibition": 2, "Z score": -0.23}, {"smiles": "Cc1ccc(C)c(-c2cnn(CC3CC3)c2)c1", "% Inhibition": 0, "Z score": 0.02}, {"smiles": "Cc1ccc(CN(Cc2nc(C(=O)NCC(C)C)co2)[C@@H](C)C(C)C)c(C)c1", "% Inhibition": -8, "Z score": 1.05}, {"smiles": "Cc1ccc(OCc2ccc(C(=O)NC3=NCC(=O)N3)o2)c(C)c1", "% Inhibition": -11, "Z score": 1.38}, {"smiles": "CN(Cc1ccc(Cl)cc1)CC1OCCO1", "% Inhibition": 3, "Z score": -0.52}, {"smiles": "CCCc1c(C(=O)N2CCNc3ncccc32)cnn1C1CCCC1", "% Inhibition": -7, "Z score": 1.14}, {"smiles": "CCn1c(=O)c(CCC(=O)Nc2ccc(F)cc2C)nc2c(C)nn(-c3ccccc3)c21", "% Inhibition": 0, "Z score": 0.04}, {"smiles": "CN(CCNC(=O)C(F)(F)Cl)S(=O)(=O)c1cccs1", "% Inhibition": -5, "Z score": 0.54}, {"smiles": "O=C(Nc1nc2ncccc2[nH]1)c1cc(F)c(Cl)cc1F", "% Inhibition": -5, "Z score": 0.55}, {"smiles": "CC(C)c1ccc(-n2nc3nc(NCCN4CCOCC4)nc(-c4ccccc4)c3c2N)cc1", "% Inhibition": -2, "Z score": 0.24}, {"smiles": "Cc1ccccc1S(=O)(=O)Nc1ccc(N2CCC(N3CCCCC3)CC2)c(C(=O)O)c1", "% Inhibition": 1, "Z score": -0.05}, {"smiles": "O=C(Nc1cccc(Cl)c1)c1ccc(N2C(=O)C3C4CCC(C4)C3C2=O)cc1", "note": "(stereo not drawn)", "% Inhibition": 9, "Z score": -1.32}, {"smiles": "CCCN1Cc2cc(Cl)ccc2O[C@@H](C)C1=O", "% Inhibition": -3, "Z score": 0.33}, {"smiles": "CCn1nccc1CNc1ccc(F)cc1F", "% Inhibition": 32, "Z score": -4.28}, {"smiles": "O=C(Cn1cnc2nc(N3CCCC3)sc2c1=O)Nc1ccc(F)c(Cl)c1", "% Inhibition": -8, "Z score": 1.31}, {"smiles": "Cc1ccc(CCC(=O)N2CCn3c2nc2ccccc23)cc1Cl", "% Inhibition": -10, "Z score": 1.32}, {"smiles": "Cc1cc(NC(=O)C(C)N2CCCC2Cn2cccn2)on1", "note": "(stereo not drawn)", "% Inhibition": -12, "Z score": 1.01}, {"smiles": "COc1ccc(-n2nc(C(=O)N3CCOCC3)c(=O)cc2OC)cc1", "% Inhibition": 41, "Z score": -5.97}, {"smiles": "CCC1Oc2cc(S(=O)(=O)N3CCCC(C(=O)NC(C)(C)CC)C3)c(C)cc2NC1=O", "note": "(stereo not drawn)", "% Inhibition": -21, "Z score": 2.65}, {"smiles": "CC(C)N(C[C@H](O)COc1ccccc1)C(C)C", "% Inhibition": -1, "Z score": 0.15}, {"smiles": "O=C(O)c1ccccc1NC(=O)c1cc(=O)[nH]c2ccccc12", "% Inhibition": 0, "Z score": 0.03}, {"smiles": "COCc1nc(C)cc(N(C)Cc2ccns2)n1", "% Inhibition": 9, "Z score": -0.79}, {"smiles": "CCCn1c(O)c(-c2nc3ccccc3[nH]2)c(=O)c2ccccc21", "% Inhibition": -19, "Z score": 1.72}, {"smiles": "CCOc1ccc(Oc2ccc(S(=O)(=O)N3CCOCC3)cc2NC(=O)c2ccc(Cl)cc2)cc1", "% Inhibition": -14, "Z score": 2.27}, {"smiles": "Cn1c(Cl)cnc1CN1CCCN(C(=O)CC2CCCC2)CC1", "% Inhibition": 2, "Z score": -0.23}, {"smiles": "CCc1noc(-c2c(C)[nH]c(C)c2S(=O)(=O)Nc2cc(F)ccc2Cl)n1", "% Inhibition": -10, "Z score": 1.97}, {"smiles": "Cc1c(CC(=O)N2CC[C@H](CN)C2)c2c(n1Cc1ccccc1)CCCC2=O", "% Inhibition": -2, "Z score": 0.43}, {"smiles": "Cc1nn2c(C(F)(F)F)cc(-c3cccnc3)nc2c1-c1ccc(Cl)cc1", "% Inhibition": -4, "Z score": 0.63}, {"smiles": "Cc1cc(C(=O)NCC(F)(F)C2(O)CCCCC2)c(C)o1", "% Inhibition": -5, "Z score": 0.76}, {"smiles": "N[C@H]1C[C@H](c2cc(NCC3CCC(c4nc5ccccc5[nH]4)CC3)ncn2)C1", "note": "(stereo partly drawn)", "% Inhibition": 2, "Z score": -0.28}, {"smiles": "NC(=O)[C@@H]1COCCN1c1nc(-c2ccccc2)ns1", "% Inhibition": -5, "Z score": 0.96}, {"smiles": "COC1(CC(=O)Nc2ncn(CC(=O)N(C)C)n2)CCC1", "% Inhibition": 11, "Z score": -1.45}, {"smiles": "C[C@@H](CNS(=O)(=O)CC1CCCC1)Cn1cccn1", "% Inhibition": 16, "Z score": -2.06}, {"smiles": "Cn1ccnc(NCCc2ccccc2N2CCOCC2)c1=O", "% Inhibition": 4, "Z score": -0.59}, {"smiles": "CC(C)(C)OC(=O)N1CC2CC1C2C(=O)NCC1CCCO1", "note": "(stereo not drawn)", "% Inhibition": 14, "Z score": -1.67}, {"smiles": "O=C1NCCCc2[nH]c(C3(CO)CCCC3)nc21", "% Inhibition": 8, "Z score": -0.77}, {"smiles": "CC1(NC(=O)CN2CCOCC2)CCCCC1c1ccc(O)cc1", "note": "(stereo not drawn)", "% Inhibition": -3, "Z score": 0.32}, {"smiles": "COc1ccc(Cl)cc1C(=O)N1CC[C@H](Oc2nc(C)cc(C)n2)C1", "% Inhibition": -16, "Z score": 2.56}, {"smiles": "O=C(Nc1ccccc1)c1cccc(Oc2cc(-c3ccc(F)cc3)ncn2)c1", "% Inhibition": -7, "Z score": 0.94}, {"smiles": "O=C(c1cnn(-c2ccccc2)n1)N1CC[C@H](N2C(=O)CNC2=O)C1", "% Inhibition": -7, "Z score": 1.39}, {"smiles": "Cc1n[nH]c(C)c1[C@H](C)NC(=O)c1cn(C)c(C)cc1=O", "% Inhibition": -2, "Z score": 0.21}, {"smiles": "COc1ccc(-n2cccn2)c(-c2cc(-c3ccccn3)nc(N)c2C#N)c1", "% Inhibition": -20, "Z score": 1.95}, {"smiles": "Cc1ccccc1C1c2ccsc2CCN1C(C)C(=O)N1CCN(C(=O)C(C)C)CC1", "note": "(stereo not drawn)", "% Inhibition": 1, "Z score": -0.1}, {"smiles": "O=C(N[C@H]1C[C@H](c2ccccc2)C1)N1CCO[C@@H](CC(F)(F)F)C1", "% Inhibition": -3, "Z score": 0.62}, {"smiles": "O=C(NCc1ccco1)Nc1ccc2cc[nH]c2c1", "% Inhibition": -39, "Z score": 4.56}, {"smiles": "Cc1nc(N2CCC(c3ccccn3)CC2)cc2nncn12", "% Inhibition": 3, "Z score": -0.42}]}]}
